Measured values as given in PubChem BioAssay AID485360 (National Center for Advancing Translational Sciences (NCATS), 2010).
Out of some 230,000 compounds screened, about 1,500 (0.65%) were called active. Inconclusive means that the source gave no clear call. Such entries were picked first, then a sample of the others. The call rests on the fitted dose curve; in most records, active means well fitted inhibition curve with a large enough effect; inconclusive means small, poorly fitted or top-dose-only effect; inactive means no such curve, though single readings can be large or run the other way. Where the call is inconclusive, the potency comes from a doubtful curve fit.

target: Lethal(3)malignant brain tumor-like protein 1 (Homo sapiens) (UniProt Q9Y468); assay: qHTS Assay for the Inhibitors of L3MBTL1; settings: AlphaScreen L3MBTL1–H3K9me1 peptide binding; activity, negative = inhibition: at 57.1 µM (top of the series); further: nearly all actives have a fitted effect of over 60% in size
Method in brief: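 Read-out is AlphaScreen signal from streptavidin donor and nickel chelate acceptor beads (10 ug/mL final each) bridging L3MBTL1 (50 nM) and biotinylated K9-monomethylated H3(1-15) peptide (75 nM), after 30 min compound exposure at room temperature.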
On the % scale 0 is the no-effect control and ±100 the full control effect; potency means the concentration at half of the fitted maximal effect; tags describe the fitted curve by direction and shape.

Chain of UniProt Q9Y468 (Q9Y468 whole entry, looked up): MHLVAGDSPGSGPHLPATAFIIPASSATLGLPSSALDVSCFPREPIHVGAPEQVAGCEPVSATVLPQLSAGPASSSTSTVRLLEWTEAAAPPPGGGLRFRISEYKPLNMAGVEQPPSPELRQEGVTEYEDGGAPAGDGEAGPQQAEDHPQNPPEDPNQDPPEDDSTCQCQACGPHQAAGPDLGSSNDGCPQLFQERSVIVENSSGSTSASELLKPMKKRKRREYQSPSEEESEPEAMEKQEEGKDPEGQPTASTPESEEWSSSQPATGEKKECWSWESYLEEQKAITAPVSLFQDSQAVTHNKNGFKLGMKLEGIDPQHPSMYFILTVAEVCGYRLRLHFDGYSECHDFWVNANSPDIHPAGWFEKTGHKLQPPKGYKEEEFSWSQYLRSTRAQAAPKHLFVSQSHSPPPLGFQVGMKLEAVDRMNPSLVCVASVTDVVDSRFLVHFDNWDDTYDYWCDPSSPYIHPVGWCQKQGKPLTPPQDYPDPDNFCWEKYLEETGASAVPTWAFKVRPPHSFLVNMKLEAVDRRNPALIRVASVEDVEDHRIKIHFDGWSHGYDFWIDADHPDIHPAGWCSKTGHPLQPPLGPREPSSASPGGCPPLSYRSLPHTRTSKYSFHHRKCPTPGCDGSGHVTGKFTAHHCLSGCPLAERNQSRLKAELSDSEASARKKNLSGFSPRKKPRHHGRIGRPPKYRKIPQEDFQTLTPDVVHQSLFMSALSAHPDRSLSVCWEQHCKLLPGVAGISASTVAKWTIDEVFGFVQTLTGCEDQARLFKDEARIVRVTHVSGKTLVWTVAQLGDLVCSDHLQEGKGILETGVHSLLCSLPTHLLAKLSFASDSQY

SMILES | activity, negative = inhibition | Potency
CCn1c(NC(C)=O)nc2ccccc21 | inactive: -0.393% | 
CCOC(=O)C1CCN(Cc2ccc(OC)cc2OC)CC1 | inactive: -6.08% | 
COc1c2ccc(OCC/C(C)=C/C(=O)C=C(C)C)cc2nc2occc12 | inactive: -3.62% | 
CC(=O)Nc1cccc(C(=O)OCC(=O)Nc2ccc(Cl)cn2)c1 | inactive: 1.36% | 
FC(F)(F)C1=Nc2cccc3cccc(c23)N1 |  | active: 2.51 µM
COc1ccc(C(=O)OC(COc2ccccc2)Cn2ccnc2)cc1 (stereo not drawn) |  | inconclusive: 12.6 µM [inhibitor, partial curve]
C=CCSC1=N/C(=C\C=C\c2ccco2)C(=O)S1 |  | active: 2.82 µM
N#Cc1ccc(NC(=O)Nc2ccc(Cl)cc2)cc1 | inactive: 1.97% | 
CCCCNc1c2c3c(cccc3n(C)c1=O)C(=O)c1ccccc1-2 | inactive: 93.9% | 
NC(=O)c1ccc(/C=N/O)nc1 |  | inconclusive: 2.51 µM [inhibitor, partial curve, poor fit]
CCC(=O)N/N=C/c1ccc(-c2ccc([N+](=O)[O-])cc2)o1 | inactive: 3.17% | 
C=CCN(CC=C)C(=S)NC(=O)c1ccc(C)c(Br)c1 |  | inconclusive: 39.8 µM [inhibitor, single point]
O=C(Cc1ccccc1F)Nc1cccc2cccnc12 | inactive: 18.8% | 
CCC(CC)C(=O)Nc1nnc(S(=O)(=O)N2c3ccccc3CC2C)s1 (stereo not drawn) | inactive: 5.25% | 
CCC(C)NCC(=O)Nc1ccc(S(N)(=O)=O)cc1 (stereo not drawn) |  | inconclusive: 3.98 µM [inhibitor, single point]
CCOC(=O)C1=C(N)OC2=C(C(=O)CC(C)(C)C2)C1c1cc(CSc2nnnn2C)cs1 (stereo not drawn) |  | inconclusive: 0.112 µM [inhibitor, full curve, poor fit]
O=C(CCS(=O)(=O)c1ccccc1)Nc1ccc(-c2nc3ccccc3s2)c(O)c1 | inactive: -0.453% | 
COc1ccc(/C=C2\CCC/C(=C\C=N\N(C)C)C2=O)cc1 |  | inconclusive: 31.6 µM [inhibitor, single point]
Cc1ccc(-c2nc3ccccn3c2Nc2ccccc2)o1 | inactive: -9.48% | 
COc1ccccc1C(=O)C1CCCN(C(=O)c2snnc2C)C1 (stereo not drawn) | inactive: 51.2% | 
Cc1ccc(/C(=N\O)c2oc3c(C)c4oc(=O)cc(C)c4cc3c2C)cc1 |  | inconclusive: 17.8 µM [inhibitor, partial curve]
O=C(NC(=S)Nc1ccc(CN2CCCCC2)cc1)c1cccc(OCc2ccccc2)c1 |  | inconclusive: 14.1 µM [inhibitor, partial curve]
COC(=O)CS(=O)(=O)c1cccc2cccnc12 | inactive: 10.6% | 
COc1ccc(C=Nc2cccnc2N)cc1 |  | inconclusive: 28.2 µM [inhibitor, single point]
O=C(OCc1nnc(-c2ccccc2)o1)C1CCN(C(=O)c2ccc(Cl)cc2)CC1 | inactive: -10% | 

SMILES | activity, negative = inhibition | Potency
COc1ccc(C(=S)N2CCCCCC2)cc1 |  | inconclusive: 20 µM [inhibitor, single point]
O=c1cc(CCl)nc2scc(-c3ccccc3)n12 |  | inconclusive: 39.8 µM [inhibitor, single point]
O=C(Nc1ccc([N+](=O)[O-])c(NC(=O)C2CCCO2)c1)C1CCCO1 (stereo not drawn) |  | inconclusive: 6.31 µM [inhibitor, single point]
O=C(O)c1ccc(COc2ccc3c4c(c(=O)oc3c2)CCC4)o1 |  | inconclusive: 35.5 µM [inhibitor, single point]
CC(C)Cn1c(N)c(C(=O)NCC2CCCO2)c2nc3ccccc3nc21 (stereo not drawn) |  | inconclusive: 39.8 µM [inhibitor, single point]
Clc1ccc(N2COC3c4cccc5cccc(c45)C32)cc1 (stereo not drawn) | inactive: 14.1% | 
O=C(N/N=C\c1ccc(-c2ccc([N+](=O)[O-])cc2)o1)c1ccc2c(c1)OCO2 |  | inconclusive: 0.708 µM [inhibitor, single point]
COc1ccc(OC)c(CN(CCN2CCOCC2)C(=O)Nc2ccccc2)c1 | inactive: -8.67% | 
NC(=O)c1ccsc1NC(=O)c1ccc([N+](=O)[O-])o1 |  | inconclusive: 22.4 µM [inhibitor, single point]
COc1ccc(NC(=O)c2cccnc2N2CCCCC2)cc1 |  | inconclusive: 39.8 µM [inhibitor, single point]
NS(=O)(=O)c1ccc(NC(=O)COC(=O)CN2C(=O)C3CC=CCC3C2=O)cc1 (stereo not drawn) |  | inconclusive: 28.2 µM [inhibitor, single point]
C/C=C(\C)CN1CCc2cc(OC)c(OC)cc2C1 |  | inconclusive: 1.78 µM [inhibitor, full curve]
CCn1c(SCC(=O)N/N=C/C=C/c2ccco2)nnc1-c1ccc(OC)cc1 |  | inconclusive: 28.2 µM [inhibitor, single point]
c1coc(CN(Cc2cccs2)Cc2nnnn2C2CCCCC2)c1 |  | inconclusive: 7.08 µM [inhibitor, single point]
COc1ccc(Cc2noc(CN3CCCN(Cc4ccc(F)cc4)CC3)n2)cc1OC |  | inconclusive: 39.8 µM [inhibitor, single point]
COC(=O)c1cccc(N2C(=O)c3cccnc3C2=O)c1 |  | inconclusive: 12.6 µM [inhibitor, partial curve]
Nc1ccc(C(=O)Nc2ccc(Nc3ccncc3)cc2)cc1 | inactive: -16.6% | 
CNC(=S)N(C)[C@H]1c2c(ccc3ccccc23)OC[C@H]1CO |  | inconclusive: 3.55 µM [inhibitor, partial curve]
Cc1ccc(NC(=S)NNC(=S)NCc2ccccc2)cc1 | inactive: -5.75% | 
Cc1ccnc2nc(C(=O)Nc3nnc(-c4ccccc4)o3)nn12 |  | inconclusive: 35.5 µM [inhibitor, single point]
Cc1c(C(=O)c2ccccc2)c2ccccn2c1CCc1ccccn1 |  | inconclusive: 2 µM [inhibitor, partial curve, poor fit]
CC(=O)n1cc([C@H]2C=C(C(=O)N3CCN(Cc4ccccc4)CC3)O[C@@H](OCCCCO)C2)c2ccccc21 | inactive: -0.59% | 
CCCc1nnc(SCC(=O)Nc2ccc(OC)cc2)n1N |  | inconclusive: 2 µM [inhibitor, single point]
COc1ccc(CN2C3CCCC2CC(NC(=O)/C=C/c2ccccc2)C3)cc1 (stereo not drawn) |  | inconclusive: 8.91 µM [inhibitor, full curve]
Cc1cc(/C=C2\SC(=S)N(Cc3ccco3)C2=O)c(C)n1-c1ccccc1 |  | inconclusive: 15.8 µM [inhibitor, partial curve]

SMILES | activity, negative = inhibition | Potency
COC(=O)c1c(C)oc2ccc(N(C(=O)Oc3ccccc3)S(=O)(=O)c3ccc(Cl)c([N+](=O)[O-])c3)cc12 |  | inconclusive: 31.6 µM [inhibitor, partial curve]
Cc1ccc(-n2cccc2/C=C2/C(=N)N3C(=NC2=O)SN=C3S(C)(=O)=O)cc1 |  | inconclusive: 11.2 µM [inhibitor, partial curve]
CCCCCCS(=O)[C@H]1CS(=O)(=O)C[C@@H]1S(=O)CCCCCC (stereo partly drawn) | inactive: -14.9% | 
CCCCn1c(SCC(=O)c2ccc(OC)cc2OC)nc2cc(S(N)(=O)=O)ccc21 |  | inconclusive: 25.1 µM [inhibitor, single point]
S=c1[nH]nc(CN2CCCC2)n1Cc1ccccc1 |  | inconclusive: 39.8 µM [inhibitor, single point]
O=C(COc1ccc([N+](=O)[O-])cc1)Nc1cc(S(=O)(=O)N2CCCCC2)ccc1N1CCCCC1 | inactive: 1.56% | 
CN(CC(=O)NC(=O)NCc1ccco1)Cc1nc2ccccc2c(=O)[nH]1 |  | inconclusive: 39.8 µM [inhibitor, single point]
COc1ccc(S(=O)(=O)Nc2cc(Cl)ccc2OC)cc1 | inactive: -0.307% | 
O=C(NC(=S)N1CCN(Cc2ccc3c(c2)OCO3)CC1)c1cccc(Br)c1 |  | inconclusive: 25.1 µM [inhibitor, single point]
COC(=O)/C=C1\OC(c2ccccc2)=CC1=O | inactive: 1% | 
COc1ccc([C@H]2CC(=O)C=C(c3ccc4cc[nH]c4c3)C2)cc1 |  | inconclusive: 17.8 µM [inhibitor, single point]
CC1=C(C#N)C(=O)N(C2CCS(=O)(=O)C2)C(=O)/C1=C\c1ccc(C)o1 (stereo not drawn) |  | active: 14.1 µM
O=C(NCc1ccc2c(c1)OCO2)c1cc(-c2ccccn2)nc2ccccc12 |  | inconclusive: 0.316 µM [inhibitor, full curve, poor fit]
Cc1ccnc(NC(=O)CNC(=O)c2ccc(Br)o2)c1 | inactive: 0.121% | 
Cc1cc(Cn2nc(C(=O)NCc3cccc(Br)c3)cc2-c2ccccc2)on1 | inactive: 1.68% | 
O=C(O)CCC(=O)NNC(=O)CCC(=O)Nc1ccccc1 |  | inconclusive: 12.6 µM [inhibitor, partial curve, poor fit]
Cc1nnc(SCc2ccc(F)cc2)n1NC/C=C/c1ccccc1 |  | inconclusive: 7.94 µM [inhibitor, full curve]
CCc1nnc(NS(=O)(=O)c2ccc(Nc3ccc([N+](=O)[O-])c4nonc34)cc2)s1 |  | inconclusive: 22.4 µM [inhibitor, partial curve, poor fit]
Cn1cc(C(=O)Nc2ccc(F)c(Cl)c2)cn1 | inactive: 8.67% | 
O=C(c1cc(-c2ccco2)nc2ccccc12)N(Cc1nnc(-c2ccc(Cl)cc2)o1)C1CC1 |  | inconclusive: 15.8 µM [inhibitor, partial curve]
CC(C)C(=O)NC(c1ccco1)c1ccc2cccnc2c1O (stereo not drawn) |  | inconclusive: 35.5 µM [inhibitor, single point]
COc1ccc(CCNC(=O)C2CCCN(c3nn4c(=O)cc(C)nc4s3)C2)cc1OC (stereo not drawn) |  | inconclusive: 5.01 µM [inhibitor, single point]
O=C1NC(c2cccs2)C(C(=O)c2ccccc2)C(O)(C(F)(F)F)N1 (stereo not drawn) |  | inconclusive: 6.31 µM [inhibitor, single point]
